About 100 (0.036%) of roughly 280,000 compounds were called active. Inconclusive results, whose numbers are uncertain, are shown with a selection of clear calls. Calls come from the whole dose curve; as a rule, active = well fitted inhibition curve with a large enough effect in the signal ratio, with a control signal flat (not every such curve was filed as active); inconclusive = small, poorly fitted or top-dose-only effect, or effect the other way, or a change in a side signal; inactive = no such curve, though single readings can be large or run the other way; the % refers to the signal ratio. Potencies of inconclusive entries are doubtful fits and often do not repeat. “Side channel” marks fits to a control or component signal instead of the main read-out.
The compounds below were run against Muscleblind-like protein 1 (Homo sapiens) (UniProt Q9NR56) (assay: qHTS Assay for Inhibitors of MBNL1-poly(CUG) RNA binding). Details: TR-FRET MBNL1-His/biotin-(CUG)12 binding, 665/545 ratio; series mostly up to 57.5 µM.
Outline: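 MBNL1-His + Biotin-(CUG)12, cpd titration 92 nM–58 uM; Tb anti-His Ab 0.055 ng/ul, SA-XL665 5 nM (final); 60 min RT; ratiometric 665/545 nm, Ex 340 nm; normalized to buffer and full-complex controls.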
Potency is the fitted concentration of half-maximal effect; tags give direction and shape of the fitted curve or compound fluorescence and quenching.

Sequence of UniProt Q9NR56 (Q9NR56 whole entry, looked up): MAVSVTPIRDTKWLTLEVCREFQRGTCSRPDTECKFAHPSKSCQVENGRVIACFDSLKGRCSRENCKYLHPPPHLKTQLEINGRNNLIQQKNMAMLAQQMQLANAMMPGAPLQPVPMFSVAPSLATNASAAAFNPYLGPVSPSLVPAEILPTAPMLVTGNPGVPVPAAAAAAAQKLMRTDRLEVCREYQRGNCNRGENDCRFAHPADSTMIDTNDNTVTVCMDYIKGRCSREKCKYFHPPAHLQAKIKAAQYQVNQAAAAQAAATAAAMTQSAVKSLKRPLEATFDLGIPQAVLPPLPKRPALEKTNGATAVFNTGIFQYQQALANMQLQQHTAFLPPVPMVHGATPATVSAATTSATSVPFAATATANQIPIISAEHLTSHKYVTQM

Structure (SMILES) | Potency
c1ccc(CN2CCN(C3=Nc4cccc5cccc3c45)CC2)cc1 | inconclusive: 14.1 µM [quencher, partial curve]
O=[N+]([O-])c1ccc(-c2csc3[n+]2CCS3)cc1 | inconclusive: 12.6 µM [quencher, partial curve]
CC1CN(S(=O)(=O)c2ccc(C(=O)Nc3nc(-c4cc5ccccc5o4)cs3)cc2)CC(C)O1 (stereo not drawn) | inactive
COc1ccccc1/C=C1\NC(=S)N(CC2CCCO2)C1=O (stereo not drawn) | inconclusive: 14.1 µM [quencher, partial curve]
COc1ccc(OC)c(Nc2nc(-c3sc(C)nc3C)cs2)c1 | inconclusive: 25.1 µM [quencher, side channel, single point]
COC(=O)CN1C2(C#N)CCCCC2CC2CCCCC21C#N (stereo not drawn) | inconclusive: 28.2 µM [fluorescent, side channel, single point]
CCc1c(C(=O)NCc2cnn(C)c2)csc1C | inconclusive: 50.1 µM [inhibitor, single point]
COCc1cc(C)nc(N/N=C/c2ccc(-c3ccc(Cl)cc3[N+](=O)[O-])o2)c1C#N | inconclusive: 15.8 µM [quencher, side channel, partial curve]
COc1ccc(CNC(=O)c2cc3ccccc3oc2=O)cc1 | inconclusive: 22.4 µM [quencher, side channel, single point]
Clc1ccc(C2=NN=C3COc4ccccc4N3C2)cc1 | inconclusive: 3.16 µM [quencher, side channel, full curve]
Cc1ccc[n+](C2C(c3ccc([N+](=O)[O-])cc3)C(C#N)=C([S-])NC2(O)C2CC2)c1 (stereo not drawn) | inconclusive: 22.4 µM [quencher, side channel, single point]
COc1cccc(-c2c(C(=O)N/N=C/c3cccs3)nnn2-c2nonc2N)c1 | inconclusive: 20 µM [quencher, side channel, single point]
CCN(CC)C(=O)c1ccc2c(c1)nnn2C | inconclusive: 39.8 µM [quencher, side channel, single point]
Cc1cc(OC(C)C(=O)NCc2ccccn2)c2c(C)cc(=O)oc2c1 (stereo not drawn) | inactive
CCc1ccc(-n2c(=S)sc3c(=O)n(-c4ccccc4OC)c(=S)[nH]c32)cc1 | inconclusive: 12.6 µM [quencher, side channel, partial curve]
CCOC(=O)c1sc2ccc(S(=O)(=O)N3CCOCC3)cc2c1N | inconclusive: 10 µM [quencher, partial curve]
COc1ccc(-c2[nH]ncc2CN2CCC(N3CCSCC3)CC2)cc1F | inconclusive: 5.01 µM [inhibitor, single point]
CCN(CC)c1ccc(/C=N/NC(=O)Cc2cccs2)cc1 | inactive
COc1ccccc1NCC(=O)N/N=C/C=C/c1ccccc1 | inconclusive: 1.12 µM [quencher, side channel, full curve, poor fit]
CN(C)c1ccc(/C=N/NC(=O)c2ccc(CN3CCOCC3)cc2)cc1Br | inconclusive: 20 µM [quencher, side channel, partial curve]
COc1ccc(OC)c(N=c2oc3cc(O)ccc3cc2C(N)=O)c1 | inconclusive: 10 µM [quencher, side channel, partial curve]

Structure (SMILES) | Potency
CN(/N=C/c1ccco1)C1=NS(=O)(=O)c2ccccc21 | inactive
COc1cccc(/C=C/C(=O)c2ccc[nH]2)c1 | inconclusive: 44.7 µM [quencher, side channel, partial curve, poor fit]
CCNc1nc2c(c(=O)n(C)c(=O)n2C)n1CCCc1ccccc1 | inactive
C[C@@H]1NC(=O)c2cc([N+](=O)[O-])cc(I)c2NCCCC[C@@H](C(N)=O)NC(=O)[C@H](CCC(=O)O)NC1=O | inconclusive: 12.6 µM [quencher, side channel, partial curve]
Nc1c(N2CCCCC2)c2ccccc2oc1=O | inconclusive: 28.2 µM [quencher, single point]
Cc1cccc(NC(=O)CN(C)S(=O)(=O)c2cccc3nsnc23)c1C | inconclusive: 11.2 µM [quencher, side channel, partial curve]
C(=N\n1cnnc1)/c1cccs1 | inactive
COCCSc1nc2c(c(=O)[nH]c(=O)n2C)n1CCCc1ccccc1 | inactive
CC1CCCCN1C(=O)C(=O)c1cn(CC(=O)N2CCCCCC2)c2ccccc12 (stereo not drawn) | inactive
COc1ccc(C(=O)Sc2ccc(Cl)cc2)cc1OC | inactive
O=C(NCCCNC(=O)c1ccccc1Br)c1ccccc1Br | inactive
Cc1ccc2nc(CSc3nnc(Nc4ccccc4C)s3)cc(=O)n2c1 | inconclusive: 39.8 µM [quencher, single point]
COc1cc(N=c2ssnc2Cl)cc(OC)c1 | inactive
CC(Nc1ccccc1)c1cc(Cl)ccc1O (stereo not drawn) | inconclusive: 1.26 µM [quencher, side channel, full curve]
O=C(c1ccc2nc(-c3ccco3)c(-c3ccco3)nc2c1)N1CCN(c2ccccc2)CC1 | inconclusive: 14.1 µM [quencher, side channel, partial curve]
C/C(Cn1nnc([N+](=O)[O-])n1)=N\NC(=O)c1ccc(O)cc1 | inconclusive: 17.8 µM [quencher, side channel, partial curve]
O=C1/C(=C/c2ccccc2Cl)SC(=S)N1CCCC(=O)N(CCO)c1ccccc1 | inactive
Cc1ccc(C(=O)Nc2sc3c(c2C(=O)O)CCCCC3)o1 | inactive
CC(OC(=O)c1ccco1)C(=O)NCc1cccs1 (stereo not drawn) | inconclusive: 50.1 µM [inhibitor, single point]
NC(=O)c1nsc(C(=O)N(c2cccc(F)c2)C(C(=O)NCC2CCCO2)c2ccc3ncccc3c2)c1N (stereo not drawn) | inconclusive: 17.8 µM [quencher, side channel, partial curve]
CCOC(=O)N1CCC2(CC1)CC(=O)c1c(ccc3oc(C(=O)O)c(C)c13)O2 | inconclusive: 39.8 µM [quencher, side channel, single point]

Structure (SMILES) | Potency
O=C1c2cccnc2C(=O)N1Cc1ccc(S(=O)(=O)NCc2ccco2)s1 | inconclusive: 14.1 µM [quencher, partial curve]
O=C(N/N=C(\c1ccccc1)c1ccccn1)c1ccccc1Cl | inactive
CC(=O)c1ccc(NC(=O)C2CCCN(C(=O)c3ccc(Cl)cc3)C2)cc1 (stereo not drawn) | inconclusive: 39.8 µM [fluorescent, side channel, single point]
CC(C)(C)c1cn(-c2ccccc2)c(=S)[nH]1 | inactive
Cc1ccc(-c2nc(P(=O)(c3ccccc3)c3ccccc3)c(N3CCOCC3)o2)cc1 | inactive
NS(=O)(=O)c1ccc(CCn2c(=S)[nH]c3ccc(F)cc3c2=O)cc1 | inconclusive: 31.6 µM [fluorescent, side channel, single point]
O=C(CN1C(=O)S/C(=C/c2cccn2-c2ccc(O)cc2)C1=O)N1CCCC1 | inconclusive: 15.8 µM [quencher, side channel, partial curve]
C=C(C)C1CC=C(C)/C(=N/NC(=O)c2ccc(NC(=O)CCC)cc2)C1 (stereo not drawn) | inactive
Cn1c(=O)oc2cc(S(=O)(=O)NC3CCN(Cc4ccccc4)CC3)ccc21 | inconclusive: 10 µM [fluorescent, side channel, partial curve]
Cc1ccc(-n2ncc3c(SCC(=O)NNC(=O)c4ccco4)ncnc32)cc1 | inconclusive: 5.01 µM [inhibitor, single point]
O=C(NCCCSc1ccccc1)c1cccnc1 | inconclusive: 39.8 µM [quencher, side channel, single point]
CCOc1cc(/C=C(\C#N)c2nc3ccccc3[nH]2)ccc1OC(C)C(=O)O (stereo not drawn) | inconclusive: 7.08 µM [quencher, side channel, partial curve]
CN(Cc1ccco1)S(=O)(=O)c1cc(F)ccc1CN1C(=O)c2cccnc2C1=O | inconclusive: 15.8 µM [quencher, side channel, partial curve]
Cn1ncc2c(Nc3ccc(Cl)c(Cl)c3)ncnc21 | inconclusive: 39.8 µM [fluorescent, side channel, single point]
O=C(Nc1cccc2c1C(=O)NC2=O)c1cccc(N2C(=O)CCC2=O)c1 | inconclusive: 15.8 µM [quencher, side channel, partial curve]
CC(=O)c1cnc(-c2cccc(Cl)c2)s1 | inconclusive: 14.1 µM [quencher, partial curve]
O=C(/C=C/c1ccccc1)Nc1ccc2c(c1)C(=O)NC2=O | inconclusive: 3.55 µM [quencher, side channel, full curve, poor fit]
O=C(COC(=O)c1ccc(Cl)cc1[N+](=O)[O-])NC(=O)c1ccccc1 | inconclusive: 15.8 µM [quencher, side channel, partial curve]
CC(=O)c1ccc2c(c1)N(C)c1ccccc1S2 | inconclusive: 11.2 µM [quencher, side channel, partial curve]
CC1=C(C(=O)OC(C)C)C(c2cccc(F)c2)N2C(=O)C(C)SC2=N1 (stereo not drawn) | inconclusive: 39.8 µM [fluorescent, side channel, partial curve]
CCOC(=O)c1sc(=S)n(-c2ccc(C)cc2)c1N | inconclusive: 14.1 µM [quencher, side channel, partial curve]
